Experimental data as given in PubChem BioAssay AID1346428 (National Center for Advancing Translational Sciences (NCATS), 2018).
The campaign covered roughly 48,000 compounds. About 1,200 (2.5%) were called active. About 2% were inconclusive and are not listed.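 Rule for the calls: active = activation of at least 60% and not above a set upper limit (about 1 call in 100 departs from these limits); inconclusive = activation of 40% to 60%, or above that upper limit; inactive = activation under 40%.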 Some of the results follow.

target: Probable G-protein coupled receptor 32 (Homo sapiens) (UniProt O75388); experiment: qHTS for Agonists of Human Resolvin D1 Receptor DRV1; details: CHO-K1 GPR32 beta-arrestin PathHunter luminescence, 90 min; at 76.9 µM; active compounds read high; zero percent set by DMSO-only wells; note: 0% is about no effect
UniProt O75388, sequence (O75388 whole entry, looked up): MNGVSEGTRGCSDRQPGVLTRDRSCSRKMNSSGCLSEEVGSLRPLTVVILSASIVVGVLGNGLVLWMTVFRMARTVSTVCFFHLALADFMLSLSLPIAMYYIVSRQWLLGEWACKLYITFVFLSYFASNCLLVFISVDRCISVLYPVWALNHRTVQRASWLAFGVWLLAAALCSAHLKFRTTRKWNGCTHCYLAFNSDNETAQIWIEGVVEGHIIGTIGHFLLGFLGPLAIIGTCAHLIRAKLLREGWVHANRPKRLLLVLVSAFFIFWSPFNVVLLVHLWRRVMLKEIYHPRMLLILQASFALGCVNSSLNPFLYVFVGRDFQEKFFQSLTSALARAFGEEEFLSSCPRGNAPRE
Method in brief: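 Readings come from a cell-based beta-arrestin complementation format: CHO-K1 GPR32 stable cells (2,500/well) treated 90 min with compounds, then beta-Gal substrate added for 1 h before chemiluminescence imaging.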

activation, inactive:
COc1cc(C(=O)NCCSc2c(C)[nH]c3ccccc23)cc(OC)c1OC -3.16%
CCOc1ccc(NC(=O)CSc2nc3ccccc3c(=O)n2CCC(=O)NC2CCCCC2)cc1 26%
COc1ccc(NC(=O)CN(C)S(=O)(=O)c2cnc[nH]2)cc1 2.33%
CCOc1ccc(Nc2oc(/C=C/c3cc(OC)c(OC)c(OC)c3)nc2C#N)cc1 4.56%
O=C(NC1CC(=O)N(c2ccc(Cl)cc2)C1)C1CCCCC1 (centres undefined) -11.3%
COc1cccc(NS(=O)(=O)c2cc(-c3cnc(C4CC4)o3)ccc2C)c1 -18.2%
COc1ccc(-c2noc(C3CC(=O)N(c4ccc5c(c4)OCCO5)C3)n2)c(OC)c1 (centres undefined) -5.1%
COC(=O)c1c(NC(=O)/C(C#N)=C/c2ccc(OC)cc2)sc2c1C(C(=O)OC)CC2 (centres undefined) -3.78%
CCc1ccccc1NC(=O)[C@H](Cc1ccccc1)N1Cc2ccccc2C1=O -4.86%
O=C(O)CSc1nc2ccccc2nc1N1CCCCC1 27%
COc1ccc(CCNC(=O)CSc2cn(CCNC(=O)c3ccc(OC)c(OC)c3)c3ccccc23)cc1OC 7.1%
Cc1cccc(C)c1NC(=O)CSc1nccn1C -8.81%
Cc1ccc(C)c(CN2C(=O)c3ccccc3S(=O)(=O)c3ccc(C(=O)N4CCN(Cc5ccccc5)CC4)cc32)c1 -19.8%
CCOc1ccc(CNC(=O)c2cccc(Nc3nc4ccccc4n4nnnc34)c2)cc1OC -8.12%
CC(C)Cn1c(SCc2cccc(F)c2)nc2ccsc2c1=O -20.3%
CCOc1ccc(NC(=O)c2oc3ccccc3c2NC(=O)C(C)Oc2ccccc2)cc1 (centres undefined) -2.17%
Cc1ccc2c(=O)cc(C(=O)Nc3ccc(S(=O)(=O)N4CCCC(C)C4)cc3)oc2c1C (centres undefined) 22.1%
CC(=O)c1cc2c(cc1N/C(=N/S(=O)(=O)c1ccc(C)cc1)c1ccc(Cl)cc1)OCO2 -18.7%
O=C(CCn1c(=O)c2cccn2c2cccnc21)NCc1cccc(Br)c1 -8.31%
COc1ccc(Cc2nc3ccc(C(=O)NCCc4ccc(Cl)cc4)cc3o2)cc1 40.8%
CCN(C(=O)CCS(=O)(=O)c1cc(Br)cc2c1N(C(=O)C1CC1)CC2)c1cccc(C)c1 -8.03%
CC1Cc2cc(S(=O)(=O)CCC(=O)Nc3ccc(OC(F)(F)F)cc3)ccc2N1C(=O)C1CC1 (centres undefined) 11.7%
COc1ccc(-c2cn3c(n2)sc2cc(C(=O)NCc4ccccc4)ccc23)cc1 -4.51%
COc1ccc(OC)c(C2CC(=O)Nc3ccc4ccccc4c32)c1 (centres undefined) 26.3%
CCOc1ccccc1N1CC(c2nc3ccccc3n2CCCCOc2ccccc2)CC1=O (centres undefined) 3.82%
CC(NC(=O)c1c(O)nc2ccccn2c1=O)c1ccccc1 (centres undefined) -22.6%
S=c1[nH]c2ccccc2s1 -110%
COc1ccccc1C1=Nn2c(nc3sc(C(=O)Nc4ccccc4Cl)c(C)c3c2=O)SC1 -9.97%
Cc1ccc(C)c(C(=O)N2CCC(c3nc4c(nnn4Cc4ccccc4)c(=O)[nH]3)CC2)c1 -0.122%
CCOCCCn1c(SCC(=O)Nc2ccccc2OC)nc2c(oc3ccccc32)c1=O -2.99%
COc1ccc(C2c3cc(OC)c(OC)cc3CC(=O)N2c2cccc(C#N)c2)cc1 (centres undefined) -14.2%
O=C(CC1N=C2c3ccccc3N=C(SCc3ccccc3Cl)N2C1=O)NC1CCCCC1 (centres undefined) -20.3%
COc1ccc(Cl)cc1-n1c(CCC(=O)O)ccc1-c1ccc(C)cc1 -3.31%
Cc1cc(=O)[nH]c(SCC(=O)N2CCN(c3ccccc3)CC2)n1 -7.31%
COc1ccc(-c2nc3ccc(C(=O)NCc4ccc(C)cc4)cc3nc2-c2ccc(OC)cc2)cc1 -5.32%
COc1ccc(NC(=O)c2oc3ccccc3c2NC(=O)Cc2ccc(F)cc2)c(OC)c1 -25.8%
CC1CCN(S(=O)(=O)c2ccc3c(c2)N(CC(=O)Nc2ccc(F)c(Cl)c2)C(=O)CO3)CC1 -20.6%
Cc1nn(CC(=O)N2CCN(c3ccccc3)CC2)c(=O)c2cc3sccc3n12 -4.32%
COc1ccc(Br)cc1CNC(=O)CCSCc1ccc(Cl)cc1 -28.1%
CCC(=O)N1CCc2cc(CNS(=O)(=O)c3cc(Cl)ccc3OC)ccc21 -14.4%
Cc1ccc(OCCn2c(COc3ccc(Cl)cc3)nc3ccccc32)cc1 9.18%
CCN1CCN(c2cc(C)c3cc(NC(=O)c4cc(OC)cc(OC)c4)ccc3n2)CC1 -21.2%
Cc1cccc(N2CCN(S(=O)(=O)c3c(C)nc4scc(C)n4c3=O)CC2C)c1 (centres undefined) 8.12%
Cc1ccc(CCNC(=O)CN2N=C(c3ccc(C)cc3)CCC2=O)cc1 -26.9%
CCc1ccccc1NC(=O)Cn1c(=O)ccc2cc(S(=O)(=O)N3CCC(C)CC3)ccc21 -14.4%
Cc1c(C(=O)Nc2cccc(Cl)c2)oc2ccc(S(=O)(=O)N3CCOCC3)cc12 13.1%
CCC(C)NC(=O)Cn1cnc2sc(C)c(S(=O)(=O)N3CCN(c4ccccc4OC)CC3)c2c1=O (centres undefined) -3.21%
COc1cccc(NC(=O)N2CCC(CN3CCOCC3)CC2)c1 6.56%
COc1ccc(N2C(=O)CCSC23C(=O)N(Cc2ccc(F)cc2)c2ccccc23)cc1Cl (centres undefined) -24.7%
CC1CCN(C(=O)c2ccc(NC(=O)c3nsc4ccccc34)cc2)CC1 -12.5%
CCOC(=O)c1sc(NC(=O)c2nc3nc(C)cc(C(F)F)n3n2)c(C(=O)OC)c1C 7.99%
CCOc1cccc(C2c3c(oc4cc(C)c(C)cc4c3=O)C(=O)N2c2nc(C)c(C)s2)c1 (centres undefined) 9.28%
COc1cccc(-c2cc(C(=O)Nc3cccnc3Cl)no2)c1 13.4%
Cc1ccc(NC(=O)CN2C(=O)C(C)(C)c3cc(S(=O)(=O)N4CCCCC4)ccc32)c(Br)c1 -4.95%
Cn1nc(C(=O)Nc2ccccc2C#N)c2c1-c1ccccc1SC2 -2.26%
COc1cccc(CNC(=O)CCS(=O)(=O)c2cc3c(cc2C)NC(=O)CO3)c1 -4.34%
CCc1ccc(-n2c(=O)c3c(C)c(C(=O)N(C)C)sc3n(Cc3cccc(C)c3)c2=O)cc1 -10.1%
CCOc1ccc(CNC(=O)CCn2nc(C)c3c(C)n(-c4ccccc4)nc3c2=O)cc1 -15.6%
Cc1ccc(C)c(N2CCN(C(=O)CCCn3ncn4c(cc5occc54)c3=O)CC2)c1 -29.6%
COc1ccc(C(=O)Nc2ccc(-c3cc4ccccc4oc3=O)c(C)c2)cc1Br -6.52%
CCN(CCCNC(=O)c1nn(-c2ccc(C)cc2)c(=O)c2c1c1ccccc1n2C)c1ccccc1 9.46%
CN(C)c1ccc(CNC(=O)CCCN2C(=O)CCn3nc(-c4cccn4C)cc32)cc1 -6.42%
Oc1ccccc1-c1nc(/C=C/c2ccccc2Cl)no1 0.968%
Cc1ccccc1NC(=O)CCc1c(C)nn(-c2ccc(N3CCCCC3)nn2)c1C -5.47%
COc1cc(-c2nc3sccn3c2Nc2cccc(C)c2)ccc1O -26.9%
Cc1ccc(O)c(-c2ccnc3cc(-c4ccc(Cl)cc4)nn23)c1 32.4%
Cc1coc2cc3oc(=O)c(CC(=O)NCc4ccc(F)cc4)c(C)c3cc12 -4.25%
Cc1ccc(-n2c(=O)c3c4c(sc3n(Cc3ccccc3F)c2=O)CCC4)cc1C -0.923%
Cc1nc(-c2ccc(Cl)cc2)sc1CCNC(=O)c1ccco1 31.4%
COc1ccc(C(=O)Nc2ccc3nc(SCc4ccc(C)cc4)sc3c2)cc1 -16.1%
COc1ccccc1OCCCn1c(C2CC(=O)N(c3ccccc3Cl)C2)nc2ccccc21 (centres undefined) 18.2%
Cc1ccc(Cn2c(=O)n(Cc3nc(-c4ccccc4)no3)c(=O)c3cc4c(cc32)OCO4)cc1 -10.3%
CC(=O)c1cccc(NC(=O)CCc2c(C)nc3c(-c4ccc(F)cc4)c(C)nn3c2C)c1 6.17%
O=C(Nc1ccccc1)N1CCN(C(=O)c2nsc3ccccc23)CC1 -9.57%
Cc1ccc(CCNC(=O)CCn2c(=O)c3cccn3c3ccc(F)cc32)cc1 37.1%
CCCc1nc2sc3c(N4CCCCC4)ncnc3c2c2c1CCCC2 -2.33%
COc1ccc(OC)c(NC(=O)Cn2cc(S(=O)(=O)c3ccccc3)c(=O)c3cc(C)ccc32)c1 8.36%
Cc1cc(=O)n2nc(N3CCC(C(=O)Nc4ccc(C(C)C)cc4)CC3)sc2n1 5.24%
Fc1cccc(F)c1-c1nc(-c2ccncc2)no1 7.57%
COc1cccc(CNC(=O)C2Cc3cc(S(=O)(=O)N4CCCCCC4)ccc3N2C(C)=O)c1 (centres undefined) 8.73%
CCOC(=O)C1CCN(C(=O)c2ccc3c(c2)sc2nc(-c4ccccc4)cn23)CC1 1.83%
CCN(CC)S(=O)(=O)c1ccc2c(c1)c(=O)c(C(=O)NCc1ccc(Cl)cc1)cn2C 40.2%
COc1ccc(CC(=O)NCc2ccc3c(c2)CCN3C(C)=O)cc1OC -20.6%
Nc1c(C(=O)Nc2ccc(Cl)c(C(F)(F)F)c2)sc2nc(-c3ccncc3)ccc12 -18.8%
